Reference: publication PMC9334361
No constants are given. Whether binding was seen depends on the method and setting. For part of these data: Binding seen in cells or lysates may run through a third protein. Some entries that bind do so weakly or less than the wild type. For part of these data: Where a sequence is shown, tags or fusion partners need not be part of it.

Sequences of proteins named here, by UniProt entry; tags and fusion partners are left off. A change or cut given only in a name is not applied to a line headed by its entry. A line that says so, or that is headed by a name, gives the form on record, which may keep a tag or linker. Residues count along the entry.
UniProt Q9Y508: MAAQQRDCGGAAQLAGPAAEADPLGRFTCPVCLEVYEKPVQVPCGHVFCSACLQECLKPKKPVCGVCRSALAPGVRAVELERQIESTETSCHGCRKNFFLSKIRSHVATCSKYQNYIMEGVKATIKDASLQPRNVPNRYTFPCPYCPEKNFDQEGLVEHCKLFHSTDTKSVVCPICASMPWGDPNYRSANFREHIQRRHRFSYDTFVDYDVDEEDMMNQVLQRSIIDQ
ZNF313 RING mutant (RING-MT) (Q9Y508, form named): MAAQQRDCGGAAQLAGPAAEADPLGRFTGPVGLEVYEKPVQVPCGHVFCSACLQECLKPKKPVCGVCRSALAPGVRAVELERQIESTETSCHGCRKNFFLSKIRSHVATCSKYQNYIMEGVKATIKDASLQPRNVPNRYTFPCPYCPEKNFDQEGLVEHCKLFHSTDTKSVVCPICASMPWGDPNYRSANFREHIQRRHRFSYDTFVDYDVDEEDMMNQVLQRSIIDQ
UniProt P11021, residues 19-654: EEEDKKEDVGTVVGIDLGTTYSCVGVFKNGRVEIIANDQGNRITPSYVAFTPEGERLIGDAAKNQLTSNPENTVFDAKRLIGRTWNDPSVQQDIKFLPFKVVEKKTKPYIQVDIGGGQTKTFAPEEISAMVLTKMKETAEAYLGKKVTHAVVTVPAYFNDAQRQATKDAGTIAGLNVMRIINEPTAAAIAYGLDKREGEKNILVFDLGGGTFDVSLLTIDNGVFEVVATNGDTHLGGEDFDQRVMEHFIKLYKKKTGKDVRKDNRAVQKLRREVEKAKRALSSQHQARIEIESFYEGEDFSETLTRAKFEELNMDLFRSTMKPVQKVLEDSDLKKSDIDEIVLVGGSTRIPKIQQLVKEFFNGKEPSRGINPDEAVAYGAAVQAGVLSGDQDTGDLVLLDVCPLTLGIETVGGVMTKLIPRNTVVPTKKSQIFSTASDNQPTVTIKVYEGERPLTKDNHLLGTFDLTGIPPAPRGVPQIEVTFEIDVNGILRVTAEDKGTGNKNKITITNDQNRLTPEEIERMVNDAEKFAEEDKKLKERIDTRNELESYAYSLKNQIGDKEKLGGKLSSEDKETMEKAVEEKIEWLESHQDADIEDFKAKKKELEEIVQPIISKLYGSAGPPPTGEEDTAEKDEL

Legend:
GST-XAF1 = biological target: T1, GST-XAF1 (UniProt Q6GPH4); experiment: pull-down; in vitro GST pull-down; purified GST-XAF1 and recombinant GRP78; both purified
T1 sequence: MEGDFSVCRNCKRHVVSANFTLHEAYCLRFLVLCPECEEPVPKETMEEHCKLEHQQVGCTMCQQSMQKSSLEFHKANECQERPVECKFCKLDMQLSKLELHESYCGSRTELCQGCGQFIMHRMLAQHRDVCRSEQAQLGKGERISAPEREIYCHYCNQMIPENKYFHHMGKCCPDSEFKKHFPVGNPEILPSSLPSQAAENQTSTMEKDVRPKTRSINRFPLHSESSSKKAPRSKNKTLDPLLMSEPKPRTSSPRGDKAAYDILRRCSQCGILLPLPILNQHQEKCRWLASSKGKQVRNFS

ZNF313-His [1] = biological target: ZNF313-His (UniProt Q9Y508); experiment: pull-down; in vitro pull-down (legend: GST pull-down); purified ZNF313-His and recombinant GRP78 (r-GRP78); both purified
[2] = biological target: zinc finger protein 313 (ZNF313), in cells (UniProt Q9Y508); experiment: co-IP; IP assays of ZNF313 and GRP78 from cells; also with increasing XAF1 transfection (equal amount of ZNF313 input), TG treatment of HT1376 XAF1+/+ and XAF1-/- sublines, HAP1 ZNF313+ and ZNF313- sublines
[3] = biological target: ZNF313 RING mutant (RING-MT) (UniProt Q9Y508); experiment: pull-down; Ni-NTA pull-down of WT and mutants of ZNF313, GRP78 detected
ZNF313-His [4] = biological target: ZNF313-His (UniProt Q9Y508); experiment: as above
[5] = biological target: T2, X-linked inhibitor of apoptosis (XIAP)-associated factor 1 (XAF1), wild type, in cells (UniProt Q6GPH4); experiment: co-IP; IP assays of XAF1 (WT and deletion mutants) and GRP78 from cells (Fig. 3A, B, E-G); details in the supplementary methods
T2 sequence: T1 sequence

binding (GST-XAF1) | binding (ZNF313-His [1]) | binding [2] | binding [3] | binding (ZNF313-His [4]) | binding [5] | Substance
binds | binds |  |  |  |  | recombinant GRP78 (from UniProt P11021 19-654)
 |  | binds | no binding | binds | binds | Glucose-regulated protein (GRP78), in cells or lysates (from UniProt P11021 19-654)
